Reference: the supplement of paper PMC10369915
The list shows a part of the results. No stated cut-off is given here; in the data, active = 3.2 or more and inactive = the rest. The signal is at background level for most entries.

Legend:
Assay in all cases: enrichment score (SH2-bound / input frequency) (ratio); bacterial display of known human phosphotyrosine sites (pTyr-Var adds point mutants) read by sequencing; higher = stronger binding; tyrosines were phosphorylated by kinases first
Settings in all cases: peptide library: pTyr-Var
SHP2 C-SH2 domain E139D = target: SHP2 C-SH2 domain E139D
[1] = target: SHP2 C-SH2 domain wild-type
SHP2 N-SH2 domain L43F = target: SHP2 N-SH2 domain L43F
SHP2 N-SH2 domain T42A = target: SHP2 N-SH2 domain T42A
SHP2 N-SH2 domain T52S = target: SHP2 N-SH2 domain T52S
[2] = target: SHP2 N-SH2 domain wild-type

Measured: enrichment score
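Further: displayed peptides selected on beads carrying the immobilized SH2 domain, with library peptides lacking any tyrosine serving as negative controls.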

B1: REV3L_Y1156 (peptide)
chain: KGPNVYKKTVN
inactive: SHP2 C-SH2 domain E139D 0.405 | [1] 0.409 | SHP2 N-SH2 domain L43F 0.414 | SHP2 N-SH2 domain T42A 0.457 | SHP2 N-SH2 domain T52S 0.479 | [2] 0.465

B2: RET_Y687_G691S (peptide)
chain: AFPVSYSSSSA
inactive: SHP2 C-SH2 domain E139D 0.979 | [1] 0.868 | SHP2 N-SH2 domain L43F 0.814 | SHP2 N-SH2 domain T42A 0.805 | SHP2 N-SH2 domain T52S 0.761 | [2] 1.01

B3: RET_Y826_Y826S (peptide)
chain: KVGPGSLGSGG
inactive: SHP2 C-SH2 domain E139D 0.713 | [1] 0.653 | SHP2 N-SH2 domain L43F 0.615 | SHP2 N-SH2 domain T42A 0.64 | SHP2 N-SH2 domain T52S 0.517 | [2] 0.762

B4: RET_Y905_YF (peptide)
chain: FEEDSYVKRSQ
inactive: SHP2 C-SH2 domain E139D 0.646 | [1] 0.468 | SHP2 N-SH2 domain L43F 0.616 | SHP2 N-SH2 domain T42A 0.499 | SHP2 N-SH2 domain T52S 0.5 | [2] 0.653

B5: RET_Y809_YF (peptide)
chain: VEFAKYGSLRG
inactive: SHP2 C-SH2 domain E139D 0.81 | [1] 0.968 | SHP2 N-SH2 domain L43F 0.64 | SHP2 N-SH2 domain T42A 0.657 | SHP2 N-SH2 domain T52S 0.774 | [2] 0.899

B6: REPS1_Y116_A113E (peptide)
chain: RHEASYSSDSE
inactive: SHP2 C-SH2 domain E139D 0.37 | [1] 0.598 | SHP2 N-SH2 domain L43F 0.466 | SHP2 N-SH2 domain T42A 0.505 | SHP2 N-SH2 domain T52S 0.349 | [2] 0.519

B7: RET_Y809_V804M_YF (peptide)
chain: MEFAKYGSLRG
inactive: SHP2 C-SH2 domain E139D 0.774 | [1] 0.649 | SHP2 N-SH2 domain L43F 0.489 | SHP2 N-SH2 domain T42A 0.556 | SHP2 N-SH2 domain T52S 0.67 | [2] 0.575

B8: REV3L_Y1156_Y1156C (peptide)
chain: KGPNVCKKTVN
inactive: SHP2 C-SH2 domain E139D 1.23 | [1] 1.2 | SHP2 N-SH2 domain L43F 1.22 | SHP2 N-SH2 domain T42A 1.15 | SHP2 N-SH2 domain T52S 1.18 | [2] 0.959

B9: RBM4_Y355_YF (peptide)
chain: FEREQYADRAR
inactive: SHP2 C-SH2 domain E139D 0.686 | [1] 0.64 | SHP2 N-SH2 domain L43F 0.54 | SHP2 N-SH2 domain T42A 0.448 | SHP2 N-SH2 domain T52S 0.615 | [2] 0.721

B10: RCOR3_Y46 (peptide)
chain: AKLDEYIAIAK
inactive: SHP2 C-SH2 domain E139D 1.15 | [1] 1.21 | SHP2 N-SH2 domain L43F 0.93 | SHP2 N-SH2 domain T42A 0.764 | SHP2 N-SH2 domain T52S 1.07 | [2] 0.878

B11: RCN1_Y115 (peptide)
chain: RVQKRYIFDNV
inactive: SHP2 C-SH2 domain E139D 0.612 | [1] 0.53 | SHP2 N-SH2 domain L43F 0.703 | SHP2 N-SH2 domain T42A 0.747 | SHP2 N-SH2 domain T52S 0.631 | [2] 0.419

B12: RET_Y905_K907T_YF (peptide)
chain: FEEDSYVTRSQ
inactive: SHP2 C-SH2 domain E139D 0.822 | [1] 0.569 | SHP2 N-SH2 domain L43F 0.655 | SHP2 N-SH2 domain T42A 0.652 | SHP2 N-SH2 domain T52S 0.647 | [2] 0.581

B13: RET_Y900_R897Q (peptide)
chain: LSQDVYEEDSY
inactive: SHP2 C-SH2 domain E139D 0.568 | [1] 0.688 | SHP2 N-SH2 domain L43F 0.545 | SHP2 N-SH2 domain T42A 0.514 | SHP2 N-SH2 domain T52S 0.556 | [2] 0.612

B14: RET_Y806_V804L_YF (peptide)
chain: LLILEYAKFGS
active: SHP2 C-SH2 domain E139D 3.52 | [2] 3.59
inactive: [1] 2.32 | SHP2 N-SH2 domain L43F 2.99 | SHP2 N-SH2 domain T42A 2.7 | SHP2 N-SH2 domain T52S 3.12

B15: RECQL5_Y484_D480G (peptide)
chain: GGFSRYDEGSG
inactive: SHP2 C-SH2 domain E139D 0.66 | [1] 0.559 | SHP2 N-SH2 domain L43F 0.722 | SHP2 N-SH2 domain T42A 0.465 | SHP2 N-SH2 domain T52S 0.568 | [2] 0.779

B16: RET_Y687 (peptide)
chain: AFPVSYSSSGA
inactive: SHP2 C-SH2 domain E139D 0.729 | [1] 0.716 | SHP2 N-SH2 domain L43F 0.693 | SHP2 N-SH2 domain T42A 0.617 | SHP2 N-SH2 domain T52S 0.725 | [2] 0.719

B17: RET_Y809_V804M (peptide)
chain: MEYAKYGSLRG
inactive: SHP2 C-SH2 domain E139D 0.824 | [1] 0.658 | SHP2 N-SH2 domain L43F 0.579 | SHP2 N-SH2 domain T42A 0.509 | SHP2 N-SH2 domain T52S 0.883 | [2] 0.678

B18: RET_Y809_R813Q (peptide)
chain: VEYAKYGSLQG
inactive: SHP2 C-SH2 domain E139D 0.592 | [1] 1.74 | SHP2 N-SH2 domain L43F 0.62 | SHP2 N-SH2 domain T42A 0.661 | SHP2 N-SH2 domain T52S 0.757 | [2] 0.607

B19: RET_Y905_K907E (peptide)
chain: YEEDSYVERSQ
inactive: SHP2 C-SH2 domain E139D 0.576 | [1] 0.948 | SHP2 N-SH2 domain L43F 0.51 | SHP2 N-SH2 domain T42A 0.612 | SHP2 N-SH2 domain T52S 0.379 | [2] 0.737

B20: RFX2_Y82_A86T (peptide)
chain: GGDAVYTNGTI
inactive: SHP2 C-SH2 domain E139D 0.777 | [1] 0.848 | SHP2 N-SH2 domain L43F 0.811 | SHP2 N-SH2 domain T42A 0.665 | SHP2 N-SH2 domain T52S 0.636 | [2] 1.09

B21: RBMX_Y190_R187G (peptide)
chain: RGGDSYGGPPR
inactive: SHP2 C-SH2 domain E139D 0.495 | [1] 0.507 | SHP2 N-SH2 domain L43F 0.578 | SHP2 N-SH2 domain T42A 0.541 | SHP2 N-SH2 domain T52S 0.643 | [2] 0.809

B22: RET_Y1062_Y1062C (peptide)
chain: IENKLCGMSDP
inactive: SHP2 C-SH2 domain E139D 0.728 | [1] 0.639 | SHP2 N-SH2 domain L43F 0.657 | SHP2 N-SH2 domain T42A 0.69 | SHP2 N-SH2 domain T52S 0.613 | [2] 0.717

B23: RET_Y905_K907E_YF (peptide)
chain: FEEDSYVERSQ
inactive: SHP2 C-SH2 domain E139D 0.716 | [1] 0.514 | SHP2 N-SH2 domain L43F 0.531 | SHP2 N-SH2 domain T42A 0.543 | SHP2 N-SH2 domain T52S 0.612 | [2] 0.56

B24: RBM47_Y541_G538R_YF (peptide)
chain: IFRASYVPFAA
inactive: SHP2 C-SH2 domain E139D 1.12 | [1] 0.857 | SHP2 N-SH2 domain L43F 0.904 | SHP2 N-SH2 domain T42A 1.01 | SHP2 N-SH2 domain T52S 1.04 | [2] 1.12

B25: RET_Y1062_P1067S (peptide)
chain: IENKLYGMSDS
inactive: SHP2 C-SH2 domain E139D 0.771 | [1] 0.578 | SHP2 N-SH2 domain L43F 0.806 | SHP2 N-SH2 domain T42A 0.668 | SHP2 N-SH2 domain T52S 0.727 | [2] 0.706

B26: RET_Y809_V804L (peptide)
chain: LEYAKYGSLRG
inactive: SHP2 C-SH2 domain E139D 0.836 | [1] 0.996 | SHP2 N-SH2 domain L43F 0.924 | SHP2 N-SH2 domain T42A 0.637 | SHP2 N-SH2 domain T52S 0.801 | [2] 0.605

B27: RET_Y900 (peptide)
chain: LSRDVYEEDSY
inactive: SHP2 C-SH2 domain E139D 0.464 | [1] 0.461 | SHP2 N-SH2 domain L43F 0.704 | SHP2 N-SH2 domain T42A 0.612 | SHP2 N-SH2 domain T52S 0.555 | [2] 0.762

B28: RCOR3_Y46_K42R (peptide)
chain: ARLDEYIAIAK
inactive: SHP2 C-SH2 domain E139D 1.07 | [1] 0.876 | SHP2 N-SH2 domain L43F 0.77 | SHP2 N-SH2 domain T42A 0.827 | SHP2 N-SH2 domain T52S 0.741 | [2] 0.935

B29: RERE_Y1259_P1262R (peptide)
chain: RTLSEYARRHV
inactive: SHP2 C-SH2 domain E139D 0.633 | [1] 0.492 | SHP2 N-SH2 domain L43F 0.421 | SHP2 N-SH2 domain T42A 0.567 | SHP2 N-SH2 domain T52S 0.4 | [2] 0.534

B30: RBM4_Y355_A359T_YF (peptide)
chain: FEREQYADRTR
inactive: SHP2 C-SH2 domain E139D 0.579 | [1] 0.723 | SHP2 N-SH2 domain L43F 0.7 | SHP2 N-SH2 domain T42A 0.547 | SHP2 N-SH2 domain T52S 0.59 | [2] 0.806

B31: RBM47_Y541 (peptide)
chain: IYGASYVPFAA
inactive: SHP2 C-SH2 domain E139D 0.858 | [1] 0.973 | SHP2 N-SH2 domain L43F 1.09 | SHP2 N-SH2 domain T42A 0.733 | SHP2 N-SH2 domain T52S 0.922 | [2] 1.04

B32: RET_Y900_YF (peptide)
chain: LSRDVYEEDSF
inactive: SHP2 C-SH2 domain E139D 0.681 | [1] 0.669 | SHP2 N-SH2 domain L43F 2.15 | SHP2 N-SH2 domain T42A 0.509 | SHP2 N-SH2 domain T52S 0.52 | [2] 0.716

B33: RHBDD1_Y264 (peptide)
chain: RNYDTYTAGLS
inactive: SHP2 C-SH2 domain E139D 0.5 | [1] 0.61 | SHP2 N-SH2 domain L43F 0.582 | SHP2 N-SH2 domain T42A 0.463 | SHP2 N-SH2 domain T52S 0.539 | [2] 0.585

B34: REPS1_Y116 (peptide)
chain: RHAASYSSDSE
inactive: SHP2 C-SH2 domain E139D 0.561 | [1] 0.545 | SHP2 N-SH2 domain L43F 0.52 | SHP2 N-SH2 domain T42A 0.403 | SHP2 N-SH2 domain T52S 0.52 | [2] 0.656

B35: RET_Y928 (peptide)
chain: LFDHIYTTQSD
inactive: SHP2 C-SH2 domain E139D 1.32 | [1] 0.913 | SHP2 N-SH2 domain L43F 1.61 | SHP2 N-SH2 domain T42A 1.11 | SHP2 N-SH2 domain T52S 1.26 | [2] 1.06

B36: RFX2_Y108_E110K (peptide)
chain: SSTASYFKAPG
inactive: SHP2 C-SH2 domain E139D 0.688 | [1] 0.648 | SHP2 N-SH2 domain L43F 0.722 | SHP2 N-SH2 domain T42A 0.553 | SHP2 N-SH2 domain T52S 0.689 | [2] 0.587

B37: RET_Y752 (peptide)
chain: KGRAGYTTVAV
inactive: SHP2 C-SH2 domain E139D 1.32 | [1] 1.21 | SHP2 N-SH2 domain L43F 1.18 | SHP2 N-SH2 domain T42A 1.61 | SHP2 N-SH2 domain T52S 1.32 | [2] 1.17
